Some of the results follow.
What was measured:
Experiment in all cases: glycan array binding signal (z-score within array); higher = stronger binding
Details in all cases: glycan notation: IUPAC condensed, linker removed
Man(b1-4)GlcNAc = biological target: Man(b1-4)GlcNAc
Outline: (§1)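 Glycan array data came from 3228 arrays in the Consortium for Functional Glycomics database, and only arrays with an available protein sequence were kept. Glycan names were put into IUPAC-condensed notation, and columns mapping to the same glycan were averaged. The binding signal is a within-array Z-score, averaged across arrays of one protein sequence run at different concentrations or buffers and across linkers. A negative Z-score can be read as non-binding.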

MurNAc(b1-4)GlcNAc = biological target: MurNAc(b1-4)GlcNAc
Outline: as §1

Neu5Ac(a2-3)Gal = biological target: Neu5Ac(a2-3)Gal
Outline: as §1

[1] = biological target: Neu5Ac(a2-3)Gal(b1-3)GalNAc
Outline: as §1

[2] = biological target: Neu5Ac(a2-3)Gal(b1-3)GalNAc(b1-3)Gal(a1-4)Gal(b1-4)Glc
Outline: as §1

[3] = biological target: Neu5Ac(a2-3)Gal(b1-3)GalNAc(b1-3)Gal(b1-4)GlcNAc
Outline: as §1

[4] = biological target: Neu5Ac(a2-3)Gal(b1-3)GalNAc(b1-4)[Neu5Ac(a2-3)]Gal(b1-4)Glc
Outline: as §1

[5] = biological target: Neu5Ac(a2-3)Gal(b1-3)GalNAc(b1-4)[Neu5Ac(a2-8)Neu5Ac(a2-3)]Gal(b1-4)Glc
Outline: as §1

[6] = biological target: Neu5Ac(a2-3)Gal(b1-3)GalNAc6S
Outline: as §1

[7] = biological target: Neu5Ac(a2-3)Gal(b1-3)GlcNAc
Outline: as §1

[8] = biological target: Neu5Ac(a2-3)Gal(b1-3)GlcNAc(b1-2)Man
Outline: as §1

[9] = biological target: Neu5Ac(a2-3)Gal(b1-3)GlcNAc(b1-2)Man(a1-3)[GlcNAc(b1-4)][Neu5Ac(a2-3)Gal(b1-3)GlcNAc(b1-2)Man(a1-6)]Man(b1-4)GlcNAc(b1-4)GlcNAc
Outline: as §1

[10] = biological target: Neu5Ac(a2-3)Gal(b1-3)GlcNAc(b1-2)Man(a1-3)[Neu5Ac(a2-3)Gal(b1-3)GlcNAc(b1-2)Man(a1-6)]Man(b1-4)GlcNAc(b1-4)GlcNAc
Outline: as §1

[11] = biological target: Neu5Ac(a2-3)Gal(b1-3)GlcNAc(b1-3)Gal(b1-3)GlcNAc
Outline: as §1

[12] = biological target: Neu5Ac(a2-3)Gal(b1-3)GlcNAc(b1-3)Gal(b1-4)GlcNAc
Outline: as §1

[13] = biological target: Neu5Ac(a2-3)Gal(b1-3)GlcNAc(b1-3)GalNAc
Outline: as §1

[14] = biological target: Neu5Ac(a2-3)Gal(b1-3)GlcNAc(b1-4)Gal(b1-4)Glc
Outline: as §1

[15] = biological target: Neu5Ac(a2-3)Gal(b1-3)GlcNAc(b1-6)GalNAc
Outline: as §1

[16] = biological target: Neu5Ac(a2-3)Gal(b1-3)GlcNAc6S
Outline: as §1

[17] = biological target: Neu5Ac(a2-3)Gal(b1-3)[Fuc(a1-4)]GlcNAc
Outline: as §1

[18] = biological target: Neu5Ac(a2-3)Gal(b1-3)[Fuc(a1-4)]GlcNAc(b1-3)Gal(b1-3)[Fuc(a1-4)]GlcNAc
Outline: as §1

[19] = biological target: Neu5Ac(a2-3)Gal(b1-3)[Fuc(a1-4)]GlcNAc(b1-3)Gal(b1-4)[Fuc(a1-3)]GlcNAc
Outline: as §1

[20] = biological target: Neu5Ac(a2-3)Gal(b1-3)[GlcNAc(b1-6)]GalNAc
Outline: as §1

[21] = biological target: Neu5Ac(a2-3)Gal(b1-3)[Neu5Ac(a2-3)Gal(b1-4)]GlcNAc
Outline: as §1

[22] = biological target: Neu5Ac(a2-3)Gal(b1-3)[Neu5Ac(a2-6)]GalNAc
Outline: as §1

[23] = biological target: Neu5Ac(a2-3)Gal(b1-3)[Neu5Ac(a2-6)]GlcNAc(b1-3)[Fuc(a1-3)[Gal(b1-4)]GlcNAc(b1-6)]Gal(b1-4)Glc
Outline: as §1

[24] = biological target: Neu5Ac(a2-3)Gal(b1-3)]Neu5Ac(a2-3)Gal(b1-4)]GlcNAc
Outline: as §1

Neu5Ac(a2-3)Gal(b1-4)Glc = biological target: Neu5Ac(a2-3)Gal(b1-4)Glc
Outline: as §1

[25] = biological target: Neu5Ac(a2-3)Gal(b1-4)GlcNAc
Outline: as §1

[26] = biological target: Neu5Ac(a2-3)Gal(b1-4)GlcNAc(b1-2)Man
Outline: as §1

[27] = biological target: Neu5Ac(a2-3)Gal(b1-4)GlcNAc(b1-2)Man(a1-3)[GlcNAc(b1-2)Man(b1-4)GlcNAc(b1-2)Man(a1-6)]Man(b1-4)GlcNAc(b1-4)GlcNAc
Outline: as §1

[28] = biological target: Neu5Ac(a2-3)Gal(b1-4)GlcNAc(b1-2)Man(a1-3)[GlcNAc(b1-4)][Neu5Ac(a2-3)Gal(b1-4)GlcNAc(b1-2)Man(a1-6)]Man(b1-4)GlcNAc(b1-4)GlcNAc
Outline: as §1

[29] = biological target: Neu5Ac(a2-3)Gal(b1-4)GlcNAc(b1-2)Man(a1-3)[Neu5Ac(a2-3)Gal(b1-4)GlcNAc(b1-2)Man(a1-6)]Man(b1-4)GlcNAc(b1-4)GlcNAc
Outline: as §1

[30] = biological target: Neu5Ac(a2-3)Gal(b1-4)GlcNAc(b1-2)Man(a1-3)[Neu5Ac(a2-3)Gal(b1-4)GlcNAc(b1-2)Man(a1-6)]Man(b1-4)GlcNAc(b1-4)[Fuc(a1-6)]GlcNAc
Outline: as §1

[31] = biological target: Neu5Ac(a2-3)Gal(b1-4)GlcNAc(b1-2)Man(a1-3)[Neu5Ac(a2-6)Gal(b1-4)GlcNAc(b1-2)Man(a1-6)]Man(b1-4)GlcNAc(b1-4)GlcNAc
Outline: as §1

[32] = biological target: Neu5Ac(a2-3)Gal(b1-4)GlcNAc(b1-2)[Neu5Ac(a2-3)Gal(b1-4)GlcNAc(b1-4)]Man(a1-3)[GlcNAc(b1-4)][Neu5Ac(a2-3)Gal(b1-4)GlcNAc(b1-2)[Neu5Ac(a2-3)Gal(b1-4)GlcNAc(b1-6)]Man(a1-6)]Man(b1-4)GlcNAc(b1-4)GlcNAc
Outline: as §1

[33] = biological target: Neu5Ac(a2-3)Gal(b1-4)GlcNAc(b1-2)[Neu5Ac(a2-3)Gal(b1-4)GlcNAc(b1-4)]Man(a1-3)[GlcNAc(b1-4)][Neu5Ac(a2-3)Gal(b1-4)GlcNAc(b1-4)Man(a1-6)]Man(b1-4)GlcNAc(b1-4)GlcNAc
Outline: as §1

[34] = biological target: Neu5Ac(a2-3)Gal(b1-4)GlcNAc(b1-2)[Neu5Ac(a2-3)Gal(b1-4)GlcNAc(b1-6)]Man(a1-6)[Neu5Ac(a2-3)Gal(b1-4)GlcNAc(b1-2)Man(a1-3)]Man(b1-4)GlcNAc(b1-4)GlcNAc
Outline: as §1

[35] = biological target: Neu5Ac(a2-3)Gal(b1-4)GlcNAc(b1-2)[Neu5Ac(a2-3)Gal(b1-4)GlcNAc(b1-6)]Man(a1-6)[Neu5Ac(a2-3)Gal(b1-4)GlcNAc(b1-2)Man(a1-3)][GlcNAc(b1-4)]Man(b1-4)GlcNAc(b1-4)GlcNAc
Outline: as §1

[36] = biological target: Neu5Ac(a2-3)Gal(b1-4)GlcNAc(b1-3)Gal
Outline: as §1

[37] = biological target: Neu5Ac(a2-3)Gal(b1-4)GlcNAc(b1-3)Gal(b1-3)GlcNAc
Outline: as §1

[38] = biological target: Neu5Ac(a2-3)Gal(b1-4)GlcNAc(b1-3)Gal(b1-4)GlcNAc
Outline: as §1

[39] = biological target: Neu5Ac(a2-3)Gal(b1-4)GlcNAc(b1-3)Gal(b1-4)GlcNAc(b1-2)Man(a1-3)[Neu5Ac(a2-3)Gal(b1-4)GlcNAc(b1-3)Gal(b1-4)GlcNAc(b1-2)Man(a1-6)]Man(b1-4)GlcNAc(b1-4)GlcNAc
Outline: as §1

[40] = biological target: Neu5Ac(a2-3)Gal(b1-4)GlcNAc(b1-3)Gal(b1-4)GlcNAc(b1-3)Gal(b1-4)GlcNAc
Outline: as §1

[41] = biological target: Neu5Ac(a2-3)Gal(b1-4)GlcNAc(b1-3)Gal(b1-4)GlcNAc(b1-3)Gal(b1-4)GlcNAc(b1-2)Man(a1-3)[Neu5Ac(a2-3)Gal(b1-4)GlcNAc(b1-3)Gal(b1-4)GlcNAc(b1-3)Gal(b1-4)GlcNAc(b1-2)Man(a1-6)]GalNAc
Outline: as §1

B1: Gal 2 (Homo sapiens), P05162 (protein)
chain: MTGELEVKNMDMKPGSTLKITGSIADGTDGFVINLGQGTDKLNLHFNPRFSESTIVCNSLDGSNWGQEQREDHLCFSPGSEVKFTVTFESDKFKVKLPDGHELTFPNRLGHSHLSYLSVRGGFNMSSFKLKE
- glycan array binding signal (z-score) (Man(b1-4)GlcNAc): -0.273
- glycan array binding signal (z-score) (MurNAc(b1-4)GlcNAc): -0.151
- glycan array binding signal (z-score) (Neu5Ac(a2-3)Gal): -0.242
- glycan array binding signal (z-score) [1]: -0.217
- glycan array binding signal (z-score) [2]: -0.225
- glycan array binding signal (z-score) [3]: -0.256
- glycan array binding signal (z-score) [4]: -0.192
- glycan array binding signal (z-score) [5]: -0.091
- glycan array binding signal (z-score) [6]: -0.259
- glycan array binding signal (z-score) [7]: -0.278
- glycan array binding signal (z-score) [8]: 0.401
- glycan array binding signal (z-score) [9]: -0.236
- glycan array binding signal (z-score) [10]: -0.206
- glycan array binding signal (z-score) [11]: -0.214
- glycan array binding signal (z-score) [12]: -0.057
- glycan array binding signal (z-score) [13]: -0.095
- glycan array binding signal (z-score) [14]: -0.212
- glycan array binding signal (z-score) [15]: -0.136
- glycan array binding signal (z-score) [16]: -0.038
- glycan array binding signal (z-score) [17]: -0.214
- glycan array binding signal (z-score) [18]: 0.004
- glycan array binding signal (z-score) [19]: -0.172
- glycan array binding signal (z-score) [20]: 0.031
- glycan array binding signal (z-score) [21]: -0.278
- glycan array binding signal (z-score) [22]: -0.207
- glycan array binding signal (z-score) [23]: -0.247
- glycan array binding signal (z-score) [24]: 0.15
- glycan array binding signal (z-score) (Neu5Ac(a2-3)Gal(b1-4)Glc): -0.242
- glycan array binding signal (z-score) [25]: -0.255
- glycan array binding signal (z-score) [26]: -0.036
- glycan array binding signal (z-score) [27]: -0.245
- glycan array binding signal (z-score) [28]: -0.117
- glycan array binding signal (z-score) [29]: -0.314
- glycan array binding signal (z-score) [30]: -0.158
- glycan array binding signal (z-score) [31]: -0.223
- glycan array binding signal (z-score) [32]: -0.14
- glycan array binding signal (z-score) [33]: 0.051
- glycan array binding signal (z-score) [34]: -0.05
- glycan array binding signal (z-score) [35]: -0.178
- glycan array binding signal (z-score) [36]: -0.172
- glycan array binding signal (z-score) [37]: -0.23
- glycan array binding signal (z-score) [38]: -0.292
- glycan array binding signal (z-score) [39]: -0.244
- glycan array binding signal (z-score) [40]: -0.287
- glycan array binding signal (z-score) [41]: 0.02

Source: the supplement of paper PMC8728848
